A lower IC50 marks a more sensitive line; where the fit passes the top or lowest dose, that dose stands as a limit. For AUC the same curve is integrated over the 256-fold range of doses and scaled to a fraction: 1 means no effect, lower means more sensitive. For part of these data: A top dose marked as inferred comes from the curve model; the source does not state it. For part of these data: An entry number marks a drug with two screens in the source, which often give different values.
What was measured:
Assay in all cases: Viability of human cancer cell lines after 72 h of drug (GDSC screen)
Masitinib = compound: Cc1ccc(NC(=O)c2ccc(CN3CCN(C)CC3)cc2)cc1Nc1nc(-c2cccnc2)cs1 [Masitinib]; conditions: top dose 20 µM
Description: (§1)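 Human cancer cell lines in 384-well plates, medium with 10% serum, drug for 72 h over a 256-fold dose range (nine 2-fold or five 4-fold steps up to the top dose). Adherent lines were fixed and stained with the nucleic acid dye Syto60, suspension lines read with resazurin; signal relative to control wells, capped at 0 and 100%. One two-parameter sigmoid per drug and line, fitted in a mixed model over all curves with the slope shared within a line.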

OSI-930 = compound: O=C(Nc1ccc(OC(F)(F)F)cc1)c1sccc1NCc1ccnc2ccccc12 [OSI-930]; conditions: top dose 10.24 µM
Description: as §1

VNLG/124 = compound: CCCC(=O)OCc1ccc(OC(=O)/C=C(C)/C=C/C=C(C)/C=C/C2=C(C)CCCC2(C)C)cc1 [VNLG/124]; conditions: top dose 5.12 µM; top dose inferred
Description: as §1

Bleomycin = compound: Cc1c(N)nc([C@H](CC(N)=O)NC[C@H](N)C(N)=O)nc1C(=O)N[C@H](C(=O)N[C@H](C)[C@@H](O)[C@H](C)C(=O)N[C@H](C(=O)NCCc1nc(-c2nc(C(=O)NCCC[S+](C)C)cs2)cs1)[C@@H](C)O)[C@@H](OC1OC(CO)C(O)C(O)C1OC1OC(CO)C(O)C(OC(N)=O)C1O)c1cnc[nH]1 [Bleomycin]
Description: as §1

Tamoxifen = compound: CC/C(=C(\c1ccccc1)c1ccc(OCCN(C)C)cc1)c1ccccc1 [Tamoxifen]; conditions: top dose 5 µM
Description: as §1

Elesclomol = compound: CN(NC(=O)CC(=O)NN(C)C(=S)c1ccccc1)C(=S)c1ccccc1 [Elesclomol]; conditions: top dose 0.2 µM; top dose inferred
Description: as §1

NSC-87877 = compound: O=S(=O)(O)c1ccc2cc(N=Nc3cc(S(=O)(=O)O)c4cccnc4c3O)ccc2c1 [NSC-87877]; conditions: top dose 16 µM; top dose inferred
Description: as §1

BX-912 = compound: O=C(Nc1cccc(Nc2ncc(Br)c(NCCc3cnc[nH]3)n2)c1)N1CCCC1 [BX-912]; conditions: top dose 10.24 µM; top dose inferred
Description: as §1

LAQ824 = compound: O=C(/C=C/c1ccc(CN(CCO)CCc2c[nH]c3ccccc23)cc1)NO [LAQ824]; conditions: top dose 1.024 µM; top dose inferred
Description: as §1

[1] = top dose 50 µM, screen: GDSC drug entry 1378, top dose inferred
[2] = top dose 64 µM, screen: GDSC drug entry 190

For SCC-25 (head and neck, adherent), the AUC (Masitinib) was 0.882, the IC50 (Masitinib) was > 20 µM and the AUC (OSI-930) was 0.962. The IC50 (OSI-930) was > 10.2 µM, the AUC (VNLG/124) was 0.905 and the IC50 (VNLG/124) was > 5.12 µM. For the same cell line, the AUC (Bleomycin; [1]) was 0.935, the IC50 (Bleomycin; [1]) was > 50 µM and the AUC (Bleomycin; [2]) was 0.251. The IC50 (Bleomycin; [2]) was 0.69 µM, the AUC (Tamoxifen) was 0.937 and the IC50 (Tamoxifen) was > 5 µM. It also gave an AUC (Elesclomol) of 0.603, an IC50 (Elesclomol) of 25 nM and an AUC (NSC-87877) of 0.943. The IC50 (NSC-87877) was > 16 µM, the AUC (BX-912) was 0.839 and the IC50 (BX-912) was 8.33 µM. For the same cell line, the AUC (LAQ824) was 0.491 and the IC50 (LAQ824) was 60.3 nM.

With FU97 (stomach, adherent) the AUC (Masitinib) was 0.949, the IC50 (Masitinib) was > 20 µM and the AUC (OSI-930) was 0.965. The IC50 (OSI-930) was > 10.2 µM, the AUC (VNLG/124) was 0.979 and the IC50 (VNLG/124) was > 5.12 µM. It also gave an AUC (Bleomycin; [1]) of 0.717, an IC50 (Bleomycin; [1]) of 13.1 µM and an AUC (Tamoxifen) of 0.957. For the same cell line, the IC50 (Tamoxifen) was > 5 µM, the AUC (Elesclomol) was 0.878 and the IC50 (Elesclomol) was > 200 nM. For the same cell line, the AUC (NSC-87877) was 0.985, the IC50 (NSC-87877) was > 16 µM and the AUC (BX-912) was 0.833. The IC50 (BX-912) was 6.87 µM, the AUC (LAQ824) was 0.381 and the IC50 (LAQ824) was 29.7 nM.

OE19 (oesophagus, adherent) was tested, and the AUC (Masitinib) was 0.942, the IC50 (Masitinib) was > 20 µM and the AUC (OSI-930) was 0.975. For the same cell line, the IC50 (OSI-930) was > 10.2 µM, the AUC (VNLG/124) was 0.981 and the IC50 (VNLG/124) was > 5.12 µM. For the same cell line, the AUC (Bleomycin; [1]) was 0.844, the IC50 (Bleomycin; [1]) was 43 µM and the AUC (Bleomycin; [2]) was 0.417. The IC50 (Bleomycin; [2]) was 2.3 µM, the AUC (Tamoxifen) was 0.975 and the IC50 (Tamoxifen) was > 5 µM. The AUC (Elesclomol) was 0.708, the IC50 (Elesclomol) was 52.6 nM and the AUC (NSC-87877) was 0.976. For the same cell line, the IC50 (NSC-87877) was > 16 µM, the AUC (BX-912) was 0.986 and the IC50 (BX-912) was > 10.2 µM. For the same cell line, the AUC (LAQ824) was 0.382 and the IC50 (LAQ824) was 29 nM.

In the case of “NCI-H2009 (lung adenocarcinoma, adherent)”, the AUC (Masitinib) is reported as 0.969, the IC50 (Masitinib) is reported as > 20 µM and the AUC (OSI-930) is reported as 0.966. The IC50 (OSI-930) was > 10.2 µM, the AUC (VNLG/124) was 0.983 and the IC50 (VNLG/124) was > 5.12 µM. It also gave an AUC (Bleomycin; [1]) of 0.634, an IC50 (Bleomycin; [1]) of 7.48 µM and an AUC (Bleomycin; [2]) of 0.416. The IC50 (Bleomycin; [2]) was 2.33 µM, the AUC (Tamoxifen) was 0.975 and the IC50 (Tamoxifen) was > 5 µM. It also gave an AUC (Elesclomol) of 0.563, an IC50 (Elesclomol) of 18.8 nM and an AUC (NSC-87877) of 0.875. For the same cell line, the IC50 (NSC-87877) was > 16 µM, the AUC (BX-912) was 0.982 and the IC50 (BX-912) was > 10.2 µM. It also gave an AUC (LAQ824) of 0.494 and an IC50 (LAQ824) of 61.5 nM.

OVMIU (ovary, adherent) was tested, and the AUC (Masitinib) was 0.916, the IC50 (Masitinib) was > 20 µM and the AUC (OSI-930) was 0.918. The IC50 (OSI-930) was > 10.2 µM, the AUC (VNLG/124) was 0.974 and the IC50 (VNLG/124) was > 5.12 µM. For the same cell line, the AUC (Bleomycin; [1]) was 0.58, the IC50 (Bleomycin; [1]) was 5.45 µM and the AUC (Bleomycin; [2]) was 0.269. For the same cell line, the IC50 (Bleomycin; [2]) was 0.733 µM, the AUC (Tamoxifen) was 0.978 and the IC50 (Tamoxifen) was > 5 µM. For the same cell line, the AUC (Elesclomol) was 0.8, the IC50 (Elesclomol) was 126 nM and the AUC (NSC-87877) was 0.853. For the same cell line, the IC50 (NSC-87877) was > 16 µM, the AUC (BX-912) was 0.911 and the IC50 (BX-912) was > 10.2 µM. It also gave an AUC (LAQ824) of 0.449 and an IC50 (LAQ824) of 45 nM.

For “NCI-H1092 (small cell lung carcinoma, suspension)”, the AUC (Masitinib) was 0.956, the IC50 (Masitinib) was > 20 µM and the AUC (OSI-930) was 0.99. For the same cell line, the IC50 (OSI-930) was > 10.2 µM, the AUC (VNLG/124) was 0.988 and the IC50 (VNLG/124) was > 5.12 µM. The AUC (Bleomycin; [1]) was 0.968, the IC50 (Bleomycin; [1]) was > 50 µM and the AUC (Bleomycin; [2]) was 0.944. The IC50 (Bleomycin; [2]) was > 64 µM, the AUC (Tamoxifen) was 0.989 and the IC50 (Tamoxifen) was > 5 µM. The AUC (Elesclomol) was 0.896, the IC50 (Elesclomol) was > 200 nM and the AUC (NSC-87877) was 0.987. For the same cell line, the IC50 (NSC-87877) was > 16 µM, the AUC (BX-912) was 0.901 and the IC50 (BX-912) was > 10.2 µM. The AUC (LAQ824) was 0.538 and the IC50 (LAQ824) was 81.1 nM.

Work on ST486 (Burkitt lymphoma, suspension) yielded an AUC (Masitinib) of 0.868, an IC50 (Masitinib) of 14.8 µM and an AUC (OSI-930) of 0.937. For the same cell line, the IC50 (OSI-930) was > 10.2 µM, the AUC (VNLG/124) was 0.981 and the IC50 (VNLG/124) was > 5.12 µM. The AUC (Bleomycin; [1]) was 0.916, the IC50 (Bleomycin; [1]) was > 50 µM and the AUC (Bleomycin; [2]) was 0.588. The IC50 (Bleomycin; [2]) was 6.77 µM, the AUC (Tamoxifen) was 0.989 and the IC50 (Tamoxifen) was > 5 µM. For the same cell line, the AUC (Elesclomol) was 0.956, the IC50 (Elesclomol) was > 200 nM and the AUC (NSC-87877) was 0.986. For the same cell line, the IC50 (NSC-87877) was > 16 µM, the AUC (BX-912) was 0.328 and the IC50 (BX-912) was 0.226 µM. It also gave an AUC (LAQ824) of 0.195 and an IC50 (LAQ824) of 9.14 nM.
